Assay results from publication PMC4414571, “Peptides of Presenilin-1 Bind the Amyloid Precursor Protein Ectodomain and Offer a Novel and Specific Therapeutic Approach to Reduce ß-Amyloid in Alzheimer’s Disease” (PLoS ONE, 2015).
Ends that are not written are not given here. * marks the point of attachment. Biotin = O=C1N[C@H]2[C@H](CS[C@H]2CCCCC(=O)*)N1

Columns and labels:
Assay in all cases: BLI; Octet RED96; biotinylated peptides loaded on streptavidin biosensors, quenched with biocytin; purified APPs (0-200 nM) or control IgG in solution; Kinetics Buffer (1X PBS, 0.002% Tween-20, 0.01% BSA), 30°C; global fit to a 1:1 model; KD = koff/kon
Details in all cases: both partners purified
[1] = target: T1, biotinylated peptide P8 (residues 66-73 of PS-1) (human)
T1 construct: Presenilin-1 (PS-1), human, residues 66-73; also called biotinylated-P8; source: synthetic peptide (Biopeptides, San Diego), >95% by HPLC
T1 peptide: Biotin-DEEEDEEL

[2] = target: T2, biotinylated peptide P7 (residues 66-80 of PS-1) (human)
T2 construct: Presenilin-1 (PS-1), human, residues 66-80; source: synthetic peptide (Biopeptides, San Diego), >95% by HPLC
T2 peptide: Biotin-DEEEDEELTLKYGAK

[3] = target: T3, biotinylated peptide P4 (residues 41-55 of PS-1) (human)
T3 construct: Presenilin-1 (PS-1), human, residues 41-55; also called biotinylated P4; source: synthetic peptide (Biopeptides, San Diego), >95% by HPLC
T3 peptide: Biotin-RRSLGHPEPLSNGRP

[4] = target: T4, biotinylated peptide P1 (residues 1-80 of PS-1) (human, biotin at the NH2-terminus)
T4 construct: Presenilin-1 (PS-1), human, residues 1-80 (NH2-terminal domain); also called PS-1 NH2-terminal domain; source: synthetic peptide (Biopeptides, San Diego), >95% by HPLC

Kd [1]: 3.45 nM | koff [1]: 0.00306 s⁻¹ | kon [1]: 886000 M⁻¹ s⁻¹ | Kd [2]: 10.1 nM | koff [2]: 0.00105 s⁻¹ | kon [2]: 104000 M⁻¹ s⁻¹ | Kd [3]: 16.1 nM | koff [3]: 0.00134 s⁻¹ | kon [3]: 83600 M⁻¹ s⁻¹ | Kd [4]: 14.3 nM | koff [4]: 0.00172 s⁻¹ | kon [4]: 120000 M⁻¹ s⁻¹
B1: soluble APP (APPs), purified ectodomain of human APP 695 (domain or fragment)
chain: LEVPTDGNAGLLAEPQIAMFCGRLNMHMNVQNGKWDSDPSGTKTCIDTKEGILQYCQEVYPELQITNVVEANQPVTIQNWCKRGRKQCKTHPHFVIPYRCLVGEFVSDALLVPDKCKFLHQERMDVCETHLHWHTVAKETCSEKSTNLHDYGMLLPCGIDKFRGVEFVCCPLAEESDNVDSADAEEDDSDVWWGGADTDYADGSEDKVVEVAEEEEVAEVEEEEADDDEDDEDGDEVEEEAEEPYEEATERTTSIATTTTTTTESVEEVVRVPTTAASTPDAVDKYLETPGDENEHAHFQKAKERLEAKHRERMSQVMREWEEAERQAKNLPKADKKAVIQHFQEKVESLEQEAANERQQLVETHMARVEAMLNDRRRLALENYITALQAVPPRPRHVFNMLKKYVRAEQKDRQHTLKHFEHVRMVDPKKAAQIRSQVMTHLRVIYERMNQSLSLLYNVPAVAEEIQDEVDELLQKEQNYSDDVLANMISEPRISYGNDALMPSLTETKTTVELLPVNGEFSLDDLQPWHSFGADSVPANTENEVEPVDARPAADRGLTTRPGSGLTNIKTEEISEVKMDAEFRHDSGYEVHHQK
